The source of these data is article PMC4336329 (PLoS ONE, 2015).

Hit rate of the full screen: of about 310,000 compounds, about 14,000 (4.5%) showed an effect of 50% or more. The effect is printed as a negative number. This is one part of the list.
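Also: peak tail current of the secondary pulse compared with the same well before compound.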

Chain of human ether-à-go-go-related gene (hERG) potassium channel (Q12809 whole entry, looked up): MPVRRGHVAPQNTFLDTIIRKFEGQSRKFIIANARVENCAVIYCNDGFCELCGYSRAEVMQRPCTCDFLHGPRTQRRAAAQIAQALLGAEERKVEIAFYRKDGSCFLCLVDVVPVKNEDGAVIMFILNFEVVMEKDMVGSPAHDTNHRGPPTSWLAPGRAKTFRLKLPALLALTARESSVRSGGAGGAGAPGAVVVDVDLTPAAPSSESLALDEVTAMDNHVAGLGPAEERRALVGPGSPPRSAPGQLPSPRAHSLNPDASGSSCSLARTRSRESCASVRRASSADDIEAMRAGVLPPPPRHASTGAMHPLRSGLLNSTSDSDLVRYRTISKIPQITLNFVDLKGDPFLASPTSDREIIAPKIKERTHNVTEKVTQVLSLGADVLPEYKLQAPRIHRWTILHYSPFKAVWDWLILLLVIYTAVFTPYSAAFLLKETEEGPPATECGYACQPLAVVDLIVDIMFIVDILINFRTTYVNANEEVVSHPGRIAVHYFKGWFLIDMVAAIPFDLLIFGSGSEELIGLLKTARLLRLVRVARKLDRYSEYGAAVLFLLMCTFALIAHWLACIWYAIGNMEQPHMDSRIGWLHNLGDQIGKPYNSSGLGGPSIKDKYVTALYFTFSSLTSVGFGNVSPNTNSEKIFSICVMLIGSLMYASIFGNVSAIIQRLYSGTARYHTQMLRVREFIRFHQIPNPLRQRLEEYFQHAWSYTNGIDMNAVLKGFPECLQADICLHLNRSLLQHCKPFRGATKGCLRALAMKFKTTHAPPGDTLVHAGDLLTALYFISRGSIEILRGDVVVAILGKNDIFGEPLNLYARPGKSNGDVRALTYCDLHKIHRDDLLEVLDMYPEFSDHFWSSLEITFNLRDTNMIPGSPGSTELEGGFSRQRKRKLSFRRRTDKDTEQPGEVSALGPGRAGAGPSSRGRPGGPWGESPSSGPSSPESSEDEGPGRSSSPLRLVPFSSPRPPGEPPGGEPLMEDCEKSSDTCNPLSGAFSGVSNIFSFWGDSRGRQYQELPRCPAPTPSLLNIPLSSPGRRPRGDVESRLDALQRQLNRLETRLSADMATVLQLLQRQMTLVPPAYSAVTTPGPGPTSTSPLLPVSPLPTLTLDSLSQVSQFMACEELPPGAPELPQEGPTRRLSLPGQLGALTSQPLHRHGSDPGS

This experiment concerns the target human ether-à-go-go-related gene (hERG) potassium channel (human, UniProt Q12809). Description: primary screen, population patch clamp on CHO cells stably expressing hERG.
As to `O=C(CSc1nnc(-c2cccs2)n1-c1ccccc1)NCC1CCCO1` (stereo not drawn), the “hERG current change (%, negative = inhibition) at 10uM” value is -74.1%. The result for `CCCCn1c(SCC(=O)NCc2ccco2)nc2ccc(N3CCOCC3)cc2c1=O` reads -41.8%; that for `Cn1c(=O)cc(OCC(=O)N2CCC(N3CCCCC3)CC2)c2ccccc21`, 12.2%. The result for `CCCn1c(C)cc(C(=O)Cn2nnc3ccccc3c2=O)c1C` reads -34.7%. In the case of `O=C(Nc1ccc2ccccc2c1)c1ccccc1O` it was 24.6%; in that of `COc1ccccc1C(=O)NC(CCSC)C(=O)NCC(c1cccs1)N(C)C` (stereo not drawn), 2.41%; in that of `Cc1ccc(N(CC(=O)NCC2CCCO2)C(=O)CCC(=O)Nc2nccs2)cc1` (stereo not drawn), 0.694%. With `Cc1ccccc1C(=O)N1CCC(C(=O)NC2CCCCC2)CC1`, the “hERG current change (%, negative = inhibition) at 10uM” value is 9.93%. In the case of `COc1cccc(Nc2nc(-c3sc(N)nc3C)cs2)c1` it was -18.2%; in that of `C/C(=N\NC(=O)c1ccncc1)c1ccc(NC(=O)c2ccc(Cl)cc2)cc1`, 11.2%. The result for `CN(Cc1nccs1)C(=O)c1ccc2nc(Cc3ccccc3F)oc2c1` reads 0.701%; that for `CCN(CC)CCC(c1ccc2c(c1)OCO2)c1c(OC)cc(OC)c2c(-c3ccccc3)cc(=O)oc12` (stereo not drawn), -65.4%; that for `N/C(=N\OC(=O)CCC1CCCC1)c1ccc([N+](=O)[O-])cc1`, -24.6%. The result for `O=C1NC(C(F)(F)F)(C(F)(F)F)N=C2SC=CN12` reads -0.905%; that for `CCOC(=O)c1c(C)oc2c1c1c(c3ccccc32)OCN(Cc2ccccn2)C1`, 11.1%; that for `O=C(Cc1ccccc1)N1CCN(S(=O)(=O)c2cccc([N+](=O)[O-])c2)CC1`, -22.2%. In the case of `O=C(CSc1nnc2sc3ccccc3n12)c1ccco1`, the “hERG current change (%, negative = inhibition) at 10uM” value is recorded as -15.2%. On to `Cc1cc(CNC(=O)c2ccc3oc(C(C)C)nc3c2)nn1C`, for which the “hERG current change (%, negative = inhibition) at 10uM” value is 9.38%. In the case of `Cc1ccc(-c2nn(-c3ccccc3)cc2C(=O)Nc2cccc(S(=O)(=O)N3CCOCC3)c2)cc1` it was 4.64%; in that of `Cc1ccnc(NC(=O)CCC(=O)N(CC(=O)NC2CCCCC2)C2CCCC2)c1`, -16%. On to `Cc1ccc(C(=O)OCC(=O)c2ccc[nH]2)s1`, for which the “hERG current change (%, negative = inhibition) at 10uM” value is recorded as -2.74%.

As for `COC(=O)c1ccc2c(c1)NC(=O)C(N1CCOCC1)S2` (stereo not drawn), the “hERG current change (%, negative = inhibition) at 10uM” value is -7.25%. The result for `Cc1cc(NC(=O)c2ccc(N(C)S(=O)(=O)c3ccccc3)cc2)no1` reads -11.5%; that for `Cc1ccnc(NCc2cc(C)ccc2O)c1`, 12.2%; that for `COC(CNC(=O)c1ccc(N2CCc3ccccc32)c([N+](=O)[O-])c1)OC`, -13.9%. The result for `CN(/N=C/Cc1nnnn1-c1ccc(Cl)cc1)c1ccccc1` reads -7.54%; that for `CCCc1cc(C(=O)N2CCN(c3ccccc3C)CC2)cs1`, -25.9%; that for `CCOC(=O)N1CCN(c2c(N3CCN(c4ccccn4)CC3)c(=O)c2=O)CC1`, -39%. In the case of `Nc1n[nH]c(C2CC2)c1N=Nc1ccc(Cl)c(Cl)c1` it was 7.85%; in that of `CC(C)C(=O)Nc1ccc(S(=O)(=O)N2CC3CC(C2)c2cccc(=O)n2C3)cc1` (stereo not drawn), 2.87%. Turning to `COc1ccc(S(=O)(=O)NCC2CCCN(C(=O)c3cccnc3)C2)cc1` (stereo not drawn), the “hERG current change (%, negative = inhibition) at 10uM” value amounted to 8.12%. The result for `Clc1ccc(OCc2cnc(Cl)s2)cc1` reads -0.97%. For the molecule `CCOC(=O)c1c(/N=C/C2=C(O)CC(C)(C)CC2=O)sc(C(C)=O)c1C`, the “hERG current change (%, negative = inhibition) at 10uM” value was found to be 2.53%.

Regarding `CCCN(CCC)C(=O)/C=C/c1cccc([N+](=O)[O-])c1`, the “hERG current change (%, negative = inhibition) at 10uM” value was -34.5%. In the case of `Cc1coc2c1c(C)cc1oc(=O)c(CC(=O)N[C@@H](C)C(=O)O)c(C)c12` it was 20.9%. In the case of `CCC(=Nc1ccc2c(c1)CCC2)c1c(O)n(-c2ccc(OC)cc2)c(=O)[nH]c1=O` it was -41.8%. The result for `O=C(O)C1SCCN1S(=O)(=O)c1ccc2ccccc2c1` (stereo not drawn) reads 8.04%; that for `Cc1ccnn1CC(=O)N/N=C/c1cn[nH]c1-c1ccc(F)cc1`, -4.37%; that for `COc1cc(/C=C/C(=O)c2ccc3c(c2)OCCO3)cc(Br)c1OCC(=O)N(C)C`, -0.0898%. Regarding `Cc1cccc(OCc2nc(C#N)c(N3CCCC3)o2)c1`, the “hERG current change (%, negative = inhibition) at 10uM” value is recorded as -29.5%. The result for `COc1ccc(OCC(=O)Nc2sc3c(c2C(=O)NCC2CCCO2)CCC3)cc1` (stereo not drawn) reads 11.2%.

Consider `CCC1=NN2C(=N)/C(=C\c3ccc(OCCOc4ccccc4)c(OC)c3)C(=O)N=C2S1`, for which the “hERG current change (%, negative = inhibition) at 10uM” value turned out to be 8.67%.
